Laboratory results taken from the supplement of paper PMC11417369.
The list shows a part of the results.

What follows are sequences tested on PF3D7_0420300 AP2 domain 1 (GST-tagged) (assay: gcPBM binding intensity (ln(normalized median fluorescence intensity)); higher = stronger DNA binding).
Summary of the method: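 The binding buffer was 1× PBS containing 1% milk, 0.2 mg/ml BSA, 0.5% salmon testes DNA and 0.03% Triton X-100. In it, GST-tagged P. falciparum DNA-binding domains expressed in E. coli were applied for 1 h to an Agilent 4 × 180k array of primer-extended double-stranded 36-bp intergenic genomic probes plus negative controls. Binding intensity, read with Alexa488 anti-GST antibody and a 488 nm scan, is the highest Masliner-normalised natural-log median intensity across replicate spots of either probe orientation.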
With “TTTTTTTTTTTTGAGTGTACAAGATTGTTGTTCCAA [XGTACX_site6120]” the “gcPBM binding intensity (ln)” value was 9. “CATACATACAAACACACACACATATATATATATATA [CACACA_site43]” was tested, and the “gcPBM binding intensity (ln)” value was 9.86. “TTATATTATATATATATTATATATATGTATGCATAA [TGCATGCA_negctrl_site481]” was tested, and the “gcPBM binding intensity (ln)” value was 9.02. GGTTTGAATTTTTAAGTGCATATAACATAAATGAAA was tested, and the “gcPBM binding intensity (ln)” value was 8.98. In the case of “ATCCTCTTTTTAAGTTGTACAGGGTCGAAAAAAAAA [XGTACX_site6852]”, the “gcPBM binding intensity (ln)” value is reported as 8.94. With “GATTATTATTATAAGGGTACAAATATTTAATAAAAA [XGTACX_site7144]” the “gcPBM binding intensity (ln)” value was 9.21. In the case of “CATGTCAAAATTATACGTACATATATAAGTTCCATT [XGTACX_site6331]”, the “gcPBM binding intensity (ln)” value is reported as 9.29. For “AAAAAAAAATAAAAAAGTACATTCATTTTATAAGAT [XGTACX_site3507]”, the “gcPBM binding intensity (ln)” value was 9.07. With “TTTAATTCTTATATTTGTACAGATTCATAATTAAAT [XGTACX_site7465]” the “gcPBM binding intensity (ln)” value was 9.01. For “CGTTTATTAAACTTGACACACACACCCCCACATATA [CACACA_site8151]”, the “gcPBM binding intensity (ln)” value was 9.91. With “TATATATATATATATGCATGCCATATGATATATATA [TGCATGCA_site109]” the “gcPBM binding intensity (ln)” value was 9.01. For “AATCGATAACAATGTAGTACCAGAAAAATAAATATT [XGTACX_site8501]”, the “gcPBM binding intensity (ln)” value was 9.57. For “TCATATTTACAAAAAGGTATTAATAAATAAAATATT [CACACA_negctrl_site259]”, the “gcPBM binding intensity (ln)” value was 9.09. For “AATAAGTGTTGATTCTTAAAATGACCATATAATAAT [TGCATGCA_negctrl_site221]”, the “gcPBM binding intensity (ln)” value was 9.09. “TATCTTTTATAAGTGACACACATAAATATTTAAATT [CACACA_site833]” was tested, and the “gcPBM binding intensity (ln)” value was 9.21. For “ATATTAGGGTCATGAACACACAAAAAAAAAAAAAAA [CACACA_site937]”, the “gcPBM binding intensity (ln)” value was 9.1. For “GCTATCATATCATGTTGTACACAACCTCAAAATGAA [XGTACX_site8757]”, the “gcPBM binding intensity (ln)” value was 9.12. In the case of “AATTATAATAAATAACGTACAAAAAATAAATTATTT [XGTACX_site3627]”, the “gcPBM binding intensity (ln)” value is reported as 9.35. “ATAAAAATAAAATGGACACACATATATACATATTTG [CACACA_site3277]” was tested, and the “gcPBM binding intensity (ln)” value was 9.68. For “ATAAGCGAATATATATCACACACAAAAAAATCAGAC [CACACA_site8657]”, the “gcPBM binding intensity (ln)” value was 10.1. “TATATATTCATGTGTACACACAAAAAAAAATAAAGT [CACACA_site2207]” was tested, and the “gcPBM binding intensity (ln)” value was 9.92. For “TTTTTTTTTGATATTTGTACTTAAGTAAATATTATA [XGTACX_site3843]”, the “gcPBM binding intensity (ln)” value was 9.11. In the case of “ATATTACACAGATATGCACACATTGTAGTTATTTAT [CACACA_site5454]”, the “gcPBM binding intensity (ln)” value is reported as 9.66. For “AAAAAGGAAATTTACACACACATATAACATACATTA [CACACA_site7534]”, the “gcPBM binding intensity (ln)” value was 9.94. In the case of “ATTATATCACTGTGTTGTACTTCTTATATAAAAATA [XGTACX_site2333]”, the “gcPBM binding intensity (ln)” value is reported as 9.36. “ACATATCGGGTGCATTAACACACATTTATTTGAATA [CACACA_site8736]” was tested, and the “gcPBM binding intensity (ln)” value was 9.31. With “TCCGTATAATTTTGCACACGAATATAAATTTGATAA [CACACA_site136]” the “gcPBM binding intensity (ln)” value was 9.18. In the case of “TGAAGATAAAAATATGCACACATATATATATATATA [CACACA_site8027]”, the “gcPBM binding intensity (ln)” value is reported as 9.33. For “CATAAAAATGAACATACACACATATATTTATTTATA [CACACA_site7222]”, the “gcPBM binding intensity (ln)” value was 9.67. In the case of ATTATATATATTGGAGTGCATATATAGTATTTTATA, the “gcPBM binding intensity (ln)” value is reported as 9.25. For “ACATATTATAGGAATACACACAAAAACTTATCGGTA [CACACA_site7587]”, the “gcPBM binding intensity (ln)” value was 9.87. In the case of “ATAGAAATCTATTGTGATTATTATTTTATTTTTAGT [XGTACX_negctrl_site605]”, the “gcPBM binding intensity (ln)” value is reported as 9.25. In the case of “AATGTATTATGTAATAGTACGTATAATATCTTATTT [XGTACX_site3]”, the “gcPBM binding intensity (ln)” value is reported as 9.28. With “ATACATATCTATAATACACACATAAATGTAACATTT [CACACA_site7621]” the “gcPBM binding intensity (ln)” value was 9.62. For “TTCTACGTTTTAAAAAAAAAAAAAAAAAAAAAAAAA [XGTACX_negctrl_site6]”, the “gcPBM binding intensity (ln)” value was 8.6. With “AATAATAACAAATGAACACACATATATATGAGCAAA [CACACA_site2121]” the “gcPBM binding intensity (ln)” value was 9.73. For “TTGATATAAAAAGAAAGTACTTTATAGATGTTTATT [XGTACX_site8144]”, the “gcPBM binding intensity (ln)” value was 9.16. For “TATAAAAATATATATATATATATATATATATATATA [TGCATGCA_negctrl_site541]”, the “gcPBM binding intensity (ln)” value was 8.89. With “TTCTCCATCAGATACTGTACATAATATATATAATAT [XGTACX_site8827]” the “gcPBM binding intensity (ln)” value was 9.39. “TGTATAACCTGTGTTACACACATTAGAATTTATATA [CACACA_site6393]” was tested, and the “gcPBM binding intensity (ln)” value was 9.34. In the case of “GCATCATTTATTTGCACACCTATTATATACTTTTTA [CACACA_site2098]”, the “gcPBM binding intensity (ln)” value is reported as 9.67. With “TATATAAAGATATATACACACAAAAAAAAAAAAAAA [CACACA_site6778]” the “gcPBM binding intensity (ln)” value was 9.32. With “TACATAAACTTTATAACACACACTTATATATATATA [CACACA_site1106]” the “gcPBM binding intensity (ln)” value was 9.54. “AAAAAGAATATAAGTAGTACAGTGCATATAATAATT [XGTACX_site617]” was tested, and the “gcPBM binding intensity (ln)” value was 9.77.
